# Where “and” joins values, the source holds several entries; their conditions need not be identical. Equal entries are not always repeated. The inconclusive results got no clear call from the source; some entries with a clear call stand among them for comparison. For part of these data: Where the call is inconclusive, the potency comes from a doubtful curve fit. For part of these data: “Side channel” marks fits to a control or component signal instead of the main read-out. Calls of active or inactive are those of the source. Unless noted, calls follow the shape of the dose curve; as a rule, active = well fitted curve in the direction sought with a large enough effect; inconclusive = small, poorly fitted or top-dose-only effect, or another doubt; inactive = no such curve, though single readings can be large; an effect the other way counts as inactive or inconclusive.
# Tests used:
# [1] = target: Peroxisome proliferator-activated receptor delta (Homo sapiens) (UniProt Q03181); experiment: qHTS assay for small molecule agonists of peroxisome proliferator-activated receptor delta signaling (AID 588534; calls by dose curve; also: potency is read from the fitted curve at half-maximal effect;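 as to activation: 0% = DMSO basal wells and 100% = positive control agonist at 10 µM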); details: HEK293T PPARdelta-UAS-bla, beta-lactamase ratio, 18 h; activation: at 76.7 µM (top of the series)
# Method in brief: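 Fluorescence from CCF4 substrate cleavage by beta-lactamase reporter, read 2 hrs at RT, measured agonist activity. Compounds were tested with 18 hrs exposure at 37 C. Concentration-response data fitted to Hill equation.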
# [2] = Cell Viability - NIH 3T3 (AID 541); details: NIH 3T3 cell viability, qHTS; activity change, negative = cytotoxicity: at 92.2 µM (top of the series);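 also: plate controls were DMSO alone for no effect and tamoxifen positive control for full effect; nearly all actives have a fitted effect of over 25% in size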
# Method in brief: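 Luminescent ATP signal (CellTiter-Glo) served as the viability read-out after NIH 3T3 cells were exposed to compounds over a concentration range for 40 hr at 37 °C. Hill-equation modelling of concentration-response data gave AC50.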
# [3] = Cellular Toxicity (caspase-3) Jurkat (AID 655); details: Jurkat caspase-3 activation, luminescence; caspase-3 activation: at 92.2 µM (top of the series), DMSO = 0%, tamoxifen = 100%;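 also: cells exposed to compound for 16 h at 37 °C before reading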
# Method in brief: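 Luminescent caspase-3/7 readout (aminoluciferin substrate cleavage) in human T-cell leukemia Jurkat cells after 16 hr compound exposure. Concentration-response normalized to DMSO and 100 uM tamoxifen; AC50 by standard Hill equation.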
# [4] = Cell Viability - LYMP2-001 (AID 921); details: LYMP2-001 lymphoblastoid cell viability; activity change, negative = cytotoxic: at 92.2 µM (top of the series);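 also: cells exposed to compound for 24 h at 37 °C; nearly all actives have a fitted effect of over 70% in size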; also: potency is read from the fitted curve at half-maximal effect;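 as to activity change, negative = cytotoxic: 0% = DMSO only and full inhibition = tetraoctylammonium bromide control wells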
# Method in brief: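 CellTiter-Glo luminescence (intracellular ATP) after 24 hr compound exposure at 37 C, 2500 lymphoblastoid cells/well in complete medium. AC50 fitted with standard Hill equation; tetraoctylammonium bromide positive control.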
# [5] = Cell Viability - LYMP2-010 (AID 981); also: potency is read from the fitted curve at half-maximal effect; nearly all actives have a fitted effect of over 55% in size
# Method in brief: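 Luminescent ATP signal (CellTiter-Glo) served as the viability read-out. Cells of the human lymphoblastoid line were treated with compound over a concentration range for 24 hours at 37 C, and AC50 values came from Hill-equation modeling.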
# [6] = Cell Viability - LYMP2-022 (AID 987); details: LYMP2-022 lymphoblastoid cell viability; viability change, negative = cytotoxic: at 92.2 µM (top of the series); also: potency is read from the fitted curve at half-maximal effect; nearly all actives have a fitted effect of over 55% in size
# Method in brief: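 qHTS: human lymphoblastoid cells 2500/well; 5 hr 37 C; cpd added; 24 hr 37 C; CellTiter-Glo, 30 min RT; luminescence. AC50 via Hill fit; tetraoctylammonium bromide positive ctrl.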
# [7] = Cell Viability - N2a (AID 540); details: N2a mouse neuroblastoma cell viability; activity change, negative = cytotoxicity: at 92.2 µM (top of the series);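 also: plate controls were DMSO alone for no effect and tamoxifen control for full effect; nearly all actives have a fitted effect of over 45% in size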
# Method in brief: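 Luminescent ATP signal (CellTiter-Glo, 20 min at room temperature) served as the viability read-out after N2a cells were treated with compounds for 40 hours at 37 °C. Concentration-response data were fitted to the Hill equation for AC50.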
# [8] = target: Nuclear receptor ROR-gamma (Homo sapiens) (UniProt P51449); experiment: qHTS assay for small molecule antagonists of the retinoid-related orphan receptor gamma (ROR-gamma) signaling pathway (AID 651802); also: potency is read from the fitted curve at half-maximal effect; nearly all actives have a fitted effect of over 60% in size
# Method in brief: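 CHO, TET-inducible ROR + RORE-LUC reporter, 1536-well qHTS. Compound pinned, doxycycline added, 16hr 37C/5% CO2. ONE-Glo, 30 min RT, luminescence; signal drop scored as antagonism.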
# [9] = qHTS assay for cell viability of HEK293 cells (AID 743288); details: ATP luminescence (CellTiter-Glo), 18 h; max response: stronger effect = lower value; also: nearly all actives have a fitted effect of over 50% in size; also: potency is read from the fitted curve at half-maximal effect; as to max response: % is scaled to controls: 0 for no effect and ±100 for the full control effect
# Method in brief: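 Environmental chemicals tested in qHTS format against parental HEK293 cells; 18 h treatment, 37 C; read-out ATP luminescence (CellTiter-Glo), 30 min RT development.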
# [10] = Cell Viability - HepG2 (AID 433; calls by dose curve;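 also: potency is read from the fitted curve at half-maximal effect; potency for ATP loss meaning cytotoxicity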); details: qHTS
# Method in brief: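 ATP luminescence (CellTiter-Glo) after 40 h compound exposure, 37 °C, HepG2, 1500 cells/well, complete medium. Normalized: DMSO = basal, 100 uM tamoxifen = 100% inhibition. AC50 via standard Hill equation.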
# [11] = Cell Viability - Renal Proximal Tubule (AID 545); details: renal proximal tubule cells viability; activity change, negative = cytotoxicity: at 91.7 µM (top of the series) unless noted; also: nearly all actives have a fitted effect of over 40% in size
# Method in brief: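 Rat kidney proximal tubule cells, freshly isolated; 1000 cells/well, 5 hr settle, compound 40 hr 37 °C. CellTiter-Glo 20 min RT, luminescence read. AC50 by standard Hill fit.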
# [12] = Cell Viability - LYMP2-004 (AID 966); details: LYMP2-004 lymphoblastoid cell viability, qHTS; activity change, negative = cytotoxicity: at 92.2 µM (top of the series);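 also: cells exposed to compound for 24 h; plate controls were DMSO only for no effect and tetraoctylammonium bromide control for full effect; nearly all actives have a fitted effect of over 65% in size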
# Method in brief: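 Cells seeded 2500/well, rested 5 hr at 37 C, dosed across a concentration series, incubated 24 hr at 37 C, then CellTiter-Glo added for 30 min at room temperature and luminescence read. Hill fitting gave AC50.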
# [13] = Cell Viability - LYMP2-017 (AID 972); also: % is scaled to controls: 0 for no effect and ±100 for the full control effect; nearly all actives have a fitted effect of over 55% in size
# Method in brief: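 2500 cells/well, 5 h 37 C; cpd 24 h 37 C in complete medium; CellTiter-Glo, 30 min RT; luminescence (ATP). AC50 via Hill fit, qHTS.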
# [14] = qHTS assay for small molecule activators of the p53 signaling pathway (AID 651743; active = well fitted activation curve with a large enough effect in the signal ratio, not every such curve was filed as active; inconclusive = small, poorly fitted or top-dose-only effect, or a change in a side signal; the % refers to the signal ratio; also: % of control where 0% means no effect); details: HCT-116 p53RE-bla, beta-lactamase FRET ratio, 16 h; activation: stronger effect = higher value
# Method in brief: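 Read-out is fluorescence intensity from the LiveBLAzer B/G FRET substrate, added for 2 hours at room temperature after HCT-116 p53RE-bla cells had been incubated with compounds for 16 hours at 37 C.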
# [15] = Cell Viability - SK-N-SH (AID 435; calls by dose curve; also: potency is read from the fitted curve at half-maximal effect); details: SK-N-SH neuroblastoma cell viability qHTS
# Method in brief: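 CellTiter-Glo ATP luminescence, 20 min RT read; cells pre-plated 5 hr, compound 40 hr at 37 °C, 1500 cells/well, complete medium. Normalized DMSO = 0, 100 uM tamoxifen = 100% inhibition; Hill-fit AC50.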
# Tags tell the direction and shape of the fitted curve or compound fluorescence and quenching.
# UniProt Q03181, sequence (Q03181 whole entry, looked up): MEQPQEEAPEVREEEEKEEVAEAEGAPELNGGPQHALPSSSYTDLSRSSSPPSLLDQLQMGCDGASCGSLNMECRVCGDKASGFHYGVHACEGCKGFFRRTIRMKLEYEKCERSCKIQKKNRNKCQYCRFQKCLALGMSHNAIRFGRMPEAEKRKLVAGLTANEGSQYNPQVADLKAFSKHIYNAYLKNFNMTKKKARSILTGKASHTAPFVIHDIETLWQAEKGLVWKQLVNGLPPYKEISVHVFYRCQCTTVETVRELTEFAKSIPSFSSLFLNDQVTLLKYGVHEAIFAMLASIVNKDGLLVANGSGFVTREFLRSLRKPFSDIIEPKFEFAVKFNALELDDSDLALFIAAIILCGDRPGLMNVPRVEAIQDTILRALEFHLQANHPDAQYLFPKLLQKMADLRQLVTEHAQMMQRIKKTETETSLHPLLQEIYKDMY
# UniProt P51449, sequence (P51449 whole entry, looked up): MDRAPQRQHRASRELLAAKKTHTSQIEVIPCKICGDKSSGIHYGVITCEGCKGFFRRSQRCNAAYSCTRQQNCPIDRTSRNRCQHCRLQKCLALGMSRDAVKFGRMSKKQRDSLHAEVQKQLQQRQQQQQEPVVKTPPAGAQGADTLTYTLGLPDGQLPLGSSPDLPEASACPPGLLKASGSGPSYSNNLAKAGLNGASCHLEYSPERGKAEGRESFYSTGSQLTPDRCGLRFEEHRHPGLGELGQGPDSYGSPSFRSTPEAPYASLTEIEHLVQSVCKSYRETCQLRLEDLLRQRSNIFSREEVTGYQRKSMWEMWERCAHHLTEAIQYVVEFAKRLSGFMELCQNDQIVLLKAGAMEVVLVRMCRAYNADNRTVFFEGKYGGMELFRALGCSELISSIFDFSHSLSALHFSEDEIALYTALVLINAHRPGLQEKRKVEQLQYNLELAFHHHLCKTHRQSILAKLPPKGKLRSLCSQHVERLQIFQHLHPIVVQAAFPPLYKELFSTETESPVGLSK
structure (smiles),measurement,setting,value
OCC(Cl)CCl (stereo unspecified),Potency,[1],inactive
COC1=CC(=O)OC(CCc2ccc3c(c2)OCO3)C1 (stereo unspecified),"activity change, negative = cytotoxicity",[2],inconclusive: -45.1%
same,caspase-3 activation,[3],inconclusive: 70.8%
same,Potency,[4],"inconclusive: 50.1 µM [cytotoxic, partial curve, poor fit]"
same,Potency,[5],"inconclusive: 39.8 µM [cytotoxic, partial curve]"
same,Potency,[6],"inconclusive: 25.1 µM [cytotoxic, full curve]"
same,Potency,[1],"inconclusive: 15.8 µM [side channel, rising, full curve]"
Clc1ccc(C(c2ccccc2Cl)C(Cl)(Cl)Cl)cc1 (stereo unspecified),"activity change, negative = cytotoxicity",[7],inconclusive: -56.1%
same,"activity change, negative = cytotoxicity",[2],inconclusive: -33.3%
same,Potency,[5],"inconclusive: 50.1 µM [cytotoxic, partial curve, poor fit]"
same,Potency,[8],"inconclusive: 84.1 µM [inhibitor, partial curve, poor fit]"
same,Potency,[9],"inconclusive: 50.1 µM [cytotoxic, single point] and inconclusive: 44.7 µM [cytotoxic, partial curve, poor fit]"
ClC(Cl)c1ccccc1,Potency,[10],inactive: > 92 µM
C=CC(N)=O,Potency,[10],inactive: > 92 µM
same,"activity change, negative = cytotoxicity",[2],inactive: 5.3% and inactive: 3.72%
same,"activity change, negative = cytotoxic",[4],inconclusive: -31.3% [cytotoxic]
same,max response,[9],inactive: -9.64% and inactive: 2.95% and inactive: 5.31%
CCCCCC[N+](=O)[O-],Potency,[10],inactive: > 92 µM
same,"activity change, negative = cytotoxicity",[11],"inactive: -10.7% [at 91.7 µM, primary cells of rat origin]"
same,Potency,[12],inactive
same,Potency,[13],inactive
same,activation,[14],inactive: -5.04%
ClCC(Cl)Cl,"activity change, negative = cytotoxicity",[11],"inactive: 1.16% [at 91.7 µM, primary cells of rat origin]"
same,Potency,[1],inactive
same,activation,[14],inactive: -0.152%
O=C(O)C(Cl)(Cl)Br,"activity change, negative = cytotoxicity",[11],"inactive: -9.33% [at 91.7 µM, primary cells of rat origin]"
Oc1c(Cl)c(Cl)cc(Cl)c1Cl,Potency,[15],inconclusive: 122 µM [partial curve]
same,"activity change, negative = cytotoxicity",[7],inconclusive: -74.8%
same,"activity change, negative = cytotoxicity",[2],inconclusive: -30.3%
same,"activity change, negative = cytotoxicity",[11],"inconclusive: -30.9% [at 91.7 µM, primary cells of rat origin]"
same,caspase-3 activation,[3],active: 83.2%
same,Potency,[4],inactive
same,activation,[14],inconclusive: 46.9%
CN1CSC(=S)N(C)C1,caspase-3 activation,[3],inconclusive: 62.1%
same,Potency,[6],active: 10 µM
same,Potency,[9],"inconclusive: 35.5 µM [cytotoxic, partial curve, poor fit]"

# Source: PubChem BioAssay (NCATS)
